This passage reports binding signal results from paper PMC12136788.

Some of the results follow.

To fix the notation:
T1: UNK ZnF1-3 (human, UniProt Q9C0B0 31-174)
T1 sequence: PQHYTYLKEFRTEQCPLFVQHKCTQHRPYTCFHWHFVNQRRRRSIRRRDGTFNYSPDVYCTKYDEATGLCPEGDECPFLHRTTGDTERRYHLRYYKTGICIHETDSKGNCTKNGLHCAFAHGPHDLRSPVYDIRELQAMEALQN

B1: chr5:24319680:24319681:-_ENSMUSG00000028945_ENSMUST00000030787|perfect_dup|FALSE|FALSE (ssRNA)
RNA: GGGAGUUCUACAGUCCGACGAUCAAGUUGAAGAUGAUAUUCUUGUCCAUUUACUGUGAUCAACUUUGUAAAAGUGUUUUCUAUGGUUGGAUCGUAGGAGUCCACAAAUUGGCCUUCAACAAAUUGAAUCGUCAAUGAGGAUUUCAACAGAGGAUUGAGCAUCA
B2: chrX:35959125:35959126:+_ENSMUSG00000000355_ENSMUST00000000365|mus_hu|FALSE|FALSE (ssRNA)
RNA: GGGAGUUCUACAGUCCGACGAUCAUUUGCUCCACUGAGUACAAAUUUGAUGGCUCCUUUAUCAACCUGCUGGUGUGGCAGGAUAAAAGGAUAUUUGUGAAGUAAUCUUAGGGUUGGAUAAAAAGGCCCUUCUCUUUGUCUAAACAACAGAGGAUUGAGCAUCA
B3: chr8:126034020:126034021:+_ENSG00000104549_ENST00000265896|hu_mus|FALSE|FALSE (ssRNA)
RNA: GGGAGUUCUACAGUCCGACGAUCUUUGAAGCAGAAAUACGUGGCGUAGAUUGCAACGGAAAAGAAGUGUCGAAUCAACACCAGAGGGUGAGGAGACAAUAUUGAAAGCAACCCAACAGGACCGGUCACACACUCUCCACCAAGCAACAGAGGAUUGAGCAUCA
B4: chr11:4127340:4127341:+_ENSG00000167325_ENST00000300738|hu_mus|hu_hu_hu_mus_False|28_58 (ssRNA)
RNA: GGGAGUUCUACAGUCCGACGAUCGGCAUAGUCAGGGUGCUUCGUGGUCAAGGUCGCGGCUGUCUCAGCAGCCAGGGUAUCUAGUUCCACUGUGGUGACCCCACUAUACAAGCCUUGGAUUACUUUCAUGGUGAUCUGAGCAGGCAACAGAGGAUUGAGCAUCA
B5: chr3:148802587:148802588:-_ENSG00000071794_ENST00000310053|hu_mus|hu_hu_hu_mus_False|78_108 (ssRNA)
RNA: GGGAGUUCUACAGUCCGACGAUCUCCAACCACAUGACCUCUCAUAGUUCCAAAUAAAACGGAAUCUUGCUCUUCAUCACUCGUUAGGAAGUCAUCUGGAGGAAUAAUGUCUUGGAAUUCAAAAUGUGGCAAGAAAGUUGAGUACAACAGAGGAUUGAGCAUCA
B6: chr14:31077228:31077229:+_ENSG00000092140_ENST00000206595|hu_hu|motif|central (ssRNA)
RNA: GGGAGUUCUACAGUCCGACGAUCUGUUGCAGUAUUUAUCCUGAUUAUAAUCUGUGCCACAUCAAAGUCUGAAACAUCAUCGGAAAUUGGCUGGGUAUUUUCUGGUCCAUAAACAAGGCAGUUAAACAAGGUUUUAGAAAAGAACAACAGAGGAUUGAGCAUCA
B7: chr13:113752066:113752067:+_ENSG00000126217_ENST00000375604|hu_hu|FALSE|FALSE (ssRNA)
RNA: GGGAGUUCUACAGUCCGACGAUCGGUGCGGCCUCCGAGGAGGCUGCAGUGCAGUGAGGCAGGGGCAGGGCUCUCUGAGCUAUGGUCGGCAGCACUGGUCCACGCCACACCCUGCAGAAACUGCAUCUUUGUAUUUUCUUUAAACAACAGAGGAUUGAGCAUCA
B8: chr7:151048522:151048523:+_ENSG00000013374_ENST00000566856|hu_mus|hu_hu_hu_mus_True|48_48 (ssRNA)
RNA: GGGAGUUCUACAGUCCGACGAUCCUGUUUCUUAUUUAUUACGAUCUUGAUGUAAUUUUCUUGAAAUCCGAAAGUUUCAGCUAUUUGGGACCUCAGUUCUCUACCAGUGACAUGCAAGCGGGUCUCCAACAAGCUUUUCUUAUCCAACAGAGGAUUGAGCAUCA
B9: chrX:98860016:98860017:+_ENSMUSG00000034160_ENSMUST00000044475|mus_hu|FALSE|FALSE (ssRNA)
RNA: GGGAGUUCUACAGUCCGACGAUCCUCCUUAUAAUGCAUCAGAGCUUCCUGCAGUUUUCCCUGCUGCUGCAGUACACUUGCUAAAUUUGAAUGGGCAGCAGCAAACUCUGGGAAGACUUCUAAUGCUUUACGAUACAAGCGAACCAACAGAGGAUUGAGCAUCA
B10: chr3:9412954:9412955:+_ENSG00000134077_ENST00000452837|hu_mus|hu_hu_hu_mus_False|48_58 (ssRNA)
RNA: GGGAGUUCUACAGUCCGACGAUCGGUUGAUAUCUCUUCUUUGAUGGCUGGAUUUUCAUAAUAGUCCAAGAUAUGUGAAUCUAAAGCAUGGCUAGUGUGCUUUUUCUUACCAUCUUUCUCAUCUGCUUUGUCUCCUUGUCCACACAACAGAGGAUUGAGCAUCA
B11: chr3:95733387:95733388:+_ENSMUSG00000015749_ENSMUST00000165307|mus_hu|FALSE|FALSE (ssRNA)
RNA: GGGAGUUCUACAGUCCGACGAUCAGAUAGGUGUGGGGGAGAAAGAAGAGAAUAGCAAAUGGAGUCCAAGAGUUGGGACUCUAACUCAGCUGCCCCCACCUCCUUGUCCACACACUAGCGCGCGCACACACACGCACGCACGCGCAACAGAGGAUUGAGCAUCA
B12: chr16:20552630:20552631:+_ENSMUSG00000003234_ENSMUST00000003319|mus_hu|FALSE|FALSE (ssRNA)
RNA: GGGAGUUCUACAGUCCGACGAUCGAGUUUACUCUGCACUUGAGAGGCCCUGUUGGCAUUGUAGCGAAACCGGUCAAUGAAAACCUGGAUGUGCUGGCGAUACUGCUGCUGCGCCUCAUAUUCACGCUGCUGGUUGAGCAGCCGCAACAGAGGAUUGAGCAUCA
B13: chr1:39494447:39494448:+_ENSG00000168653_ENST00000372967|hu_mus|hu_hu_hu_mus_False|38_108 (ssRNA)
RNA: GGGAGUUCUACAGUCCGACGAUCGCAUCGACCAGCCUUCUUAUAGGGCUGUUCUGCGCUUAGGAACAUAAAGUGCCGGUCCAGGCUGAUGCCCAGCCUUUUCUGGAUGUCAAGGAAAGGCAUGGCUCUGCAGUGCCCUUGUCACAACAGAGGAUUGAGCAUCA
B14: chrX:140365796:140365797:-_ENSMUSG00000031285_ENSMUST00000033642|mus_mus|mus_mus_mus_hu_False|28_28 (ssRNA)
RNA: GGGAGUUCUACAGUCCGACGAUCCUUCUCAUUACUCAGUGCCUGCAAGGUUCUGGUUCGGUAGAAGCUACAGUGGGCGCUGUGAGUGGGGCUAGGCAACCCAUUCAUCCGUGACCCUCGCAUGUUCCUGGAUGUCUUAUCUCUCAACAGAGGAUUGAGCAUCA
B15: chr14:70237991:70237992:+_ENSG00000100650_ENST00000557154|hu_mus|motif|central (ssRNA)
RNA: GGGAGUUCUACAGUCCGACGAUCCCUGCUCCUUGAUCGGCUGUAAGACUUGCUCCUUCGUGAACGGGAUCGGCUACGGGACCGGGAGGAACUUCUGGUCCGAGAUCGUGACCUGCUUCUUGACCUGUGCCUUUUGCUGCCUUCCAACAGAGGAUUGAGCAUCA
B16: chr3:176767854:176767855:-_ENSG00000177565_ENST00000430069|hu_hu|hu_hu_hu_mus_False|8_28 (ssRNA)
RNA: GGGAGUUCUACAGUCCGACGAUCGACAUCCUUGUUACUGGGCACGUCCUGCCCUCCUUCCCGUAUGCAGUGUCUAAGCACGAGCUGCGUAGGGCCACUCGUGCUGUUCUCACUAAGGUUCCAGAUUCUUGCUGUUGAGUCUCCCAACAGAGGAUUGAGCAUCA
B17: 71494177_71494297_5353_CDS_ENSG00000131711_ENST00000296755|human|control|control (ssRNA)
RNA: GGGAGUUCUACAGUCCGACGAUCAGGUGGUAUCUUAUGUGAUAAACUGGAGUCCUGCAUGUCAGAAGGACUGUAGUCCACUUCAGUUGGCCCAUUUUCAGUGAUGUGAAGCACGCCUGCACCCACUGUAGGGUGAUCUGGAGACAACAGAGGAUUGAGCAUCA
B18: chr17:34985079:34985080:-_ENSMUSG00000040356_ENSMUST00000046022|mus_hu|FALSE|FALSE (ssRNA)
RNA: GGGAGUUCUACAGUCCGACGAUCAGCCGAGAGAUUUGUGUUCUCCAGCAAGACCUCUUUGUAACCCAGUAUCUGGCCUGUGGUUGGGUGUCUUUGGGCCUGUAGGUCGGAUGGGACUGGGGCUCCCAGGACAGCCAAAAGAGACAACAGAGGAUUGAGCAUCA
B19: chr14:57741442:57741443:+_ENSG00000053770_ENST00000261558|hu_hu|motif|central (ssRNA)
RNA: GGGAGUUCUACAGUCCGACGAUCAGUUUUCCAAGCUGGCUGUUUCUGUGGCUGAGUCACAGAUGCAAAAUUGGUAUUAUCGGAUGAAUUCUGUAAGUUGGCAUCUAAUAAAGUACCAAAUGGACAAGCCUGCAGAAGCAAGUCCAACAGAGGAUUGAGCAUCA
B20: chr12:96407613:96407614:-_ENSG00000111144_ENST00000228740|hu_mus|FALSE|FALSE (ssRNA)
RNA: GGGAGUUCUACAGUCCGACGAUCCUUCCAGUCAUCAGUCGUUACACUUUGGUAGGAAAACUUCUUAACAUAAGCCUUUAAGAAUCCUAGAAACACCUCUGGUCCCCCAAGAAGCUGUUCAAGGUAGAAGAGUAGCGCAAAGCCCAACAGAGGAUUGAGCAUCA
B21: chr16:45382771:45382772:-_ENSMUSG00000022661_ENSMUST00000163230|mus_mus|mus_mus_mus_hu_True|8_68 (ssRNA)
RNA: GGGAGUUCUACAGUCCGACGAUCCUGGGUCAUGUUAUAAGACAAAUGGACAGGGAGGGCAUGCUUCUGUAAAGAUGUGAGCUAUUGUCUAAGACUAACAAUAUUUAUCUAGCUAUAAAAAUAAGUUUUAAAUGGACGUUAAGACAACAGAGGAUUGAGCAUCA
B22: chr14:89307221:89307222:+_ENSG00000165533_ENST00000346301|hu_mus|hu_hu_hu_mus_False|58_108 (ssRNA)
RNA: GGGAGUUCUACAGUCCGACGAUCUCCUGUCUGAUUAGUGCCAGGGAGCUUCAAAGAUGUGCCAGGGCGUGGGACCUGAGCUAUAGCAUUUUCAUCCAGGAUCAUUUCAGCAAUUCCUUCCUGGUCCACAUCAAUUUCAUCUAUCAACAGAGGAUUGAGCAUCA

The assay has as its target T1, UNK ZnF1-3. Briefly: nsRBNS (natural sequence RNA bind-n-seq); RBNS binding buffer (assumed for nsRBNS): 25 mM Tris pH 7.5, 150 mM KCl, 3 mM MgCl2, 0.01% Triton X-100, 500 ug/ml BSA, 20 U/ml SUPERase-In, 4 C; UNK is unkempt and MSI1 is Musashi-1; names of the RNAs are library labels; protein concentration not given here; high values mean tight binding.
As for B1, the binding signal worked out at 0.949 enrichment R. In the case of B2 it was 0.603 enrichment R; in that of B3, 1.73 enrichment R; in that of B4, 0.801 enrichment R.

Molecule B5 gave a binding signal of 1.41 enrichment R. In the case of B6 it was 1.43 enrichment R; in that of B7, 0.717 enrichment R; in that of B8, 0.677 enrichment R. B9: the binding signal is 0.396 enrichment R. B10 displayed a binding signal of 0.435 enrichment R. B11: the binding signal worked out at 0.54 enrichment R.

B12 came in with a binding signal of 0.605 enrichment R. B13 displayed a binding signal of 0.793 enrichment R.

The molecule B14 gave a binding signal of 0.771 enrichment R. B15 came in with a binding signal of 0.724 enrichment R. As for B16, the figure is 0.414 enrichment R. For the molecule B17, the binding signal stood at 0.359 enrichment R. As for B18, the figure is 0.927 enrichment R; as for B19, 0.772 enrichment R; as for B20, 1.37 enrichment R. In the case of B21 it was 2.84 enrichment R; in that of B22, 0.819 enrichment R.
